{
  "source": "PubChem BioAssay AID1468",
  "about": "(National Center for Advancing Translational Sciences (NCATS), 2008)",
  "note": "Values joined by “and” are separate entries in the source; they are usually repeats but may differ in a detail not shown here. Equal values may be shown once. The campaign covered roughly 280,000 compounds. About 1,100 (0.39%) were called active. This list was built around the results that the source calls inconclusive (neither active nor inactive); the mix of calls is not that of the screen. Calls come from the whole dose curve; as a rule, active = well fitted inhibition curve with a large enough effect; inconclusive = small, poorly fitted or top-dose-only effect, or effect the other way; inactive = flat fitted curve, though single readings scatter. Potencies beside an inconclusive call are fits to weak or partial responses and may not hold up. % is set by controls: 0 for no effect and ±100 for the full control effect; potency is the fitted concentration of half-maximal effect; tags give direction and shape of the fitted curve.",
  "data": [
    {"molecular_target": "Microtubule-associated protein tau (Homo sapiens) (UniProt P10636)", "sequence (P10636 whole entry, looked up, the tested form may be a part)": "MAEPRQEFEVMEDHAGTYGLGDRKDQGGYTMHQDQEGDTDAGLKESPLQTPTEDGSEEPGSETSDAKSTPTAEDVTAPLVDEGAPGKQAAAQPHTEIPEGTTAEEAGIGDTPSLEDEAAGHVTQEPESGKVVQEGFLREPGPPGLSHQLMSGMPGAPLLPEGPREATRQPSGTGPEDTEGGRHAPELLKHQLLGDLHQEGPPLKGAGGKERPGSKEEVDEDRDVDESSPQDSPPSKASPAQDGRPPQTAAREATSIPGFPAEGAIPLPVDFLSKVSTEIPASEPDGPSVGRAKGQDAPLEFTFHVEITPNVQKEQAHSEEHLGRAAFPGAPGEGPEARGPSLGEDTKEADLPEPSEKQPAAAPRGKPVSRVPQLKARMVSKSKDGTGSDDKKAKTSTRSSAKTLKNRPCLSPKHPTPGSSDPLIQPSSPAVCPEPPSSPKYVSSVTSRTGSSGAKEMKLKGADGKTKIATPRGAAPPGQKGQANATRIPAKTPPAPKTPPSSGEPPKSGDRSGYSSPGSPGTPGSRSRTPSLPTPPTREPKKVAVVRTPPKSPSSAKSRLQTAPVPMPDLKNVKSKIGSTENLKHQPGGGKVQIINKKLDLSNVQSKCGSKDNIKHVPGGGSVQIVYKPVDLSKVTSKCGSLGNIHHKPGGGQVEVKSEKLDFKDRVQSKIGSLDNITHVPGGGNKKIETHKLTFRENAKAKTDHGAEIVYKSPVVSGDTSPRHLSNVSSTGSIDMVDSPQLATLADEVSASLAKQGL", "assay": "qHTS for Inhibitors of Tau Fibril Formation, Fluorescence Polarization; note: nearly all actives have a fitted effect of over 55% in size", "settings": "K18 P301L tau heparin fibrillization, Alexa594 FP, 6 h; series mostly up to 57.7 µM", "summary_of_the_method": "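Human tau K18 […] P301L fragment, 15 uM unlabeled plus 0.24 uM Alexa 594-labeled tau (final), with compound and 20 uM heparin in 100 mM sodium acetate pH 7; 6 hr at 37 C, then Alexa 594 FP read.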", "values": [
      {"smiles": "COc1ccc(-c2nn(-c3ccccc3)cc2C(=O)NC(=S)Nc2cc(Cl)ccc2Cl)cc1", "Potency": "inconclusive: 11.2 µM [inhibitor, partial curve]"},
      {"smiles": "O=C(NC12CC3CC(CC(C3)C1)C2)c1ccccc1O", "Potency": "inconclusive: 10 µM [inhibitor, partial curve]"},
      {"smiles": "Cc1cc(C(=O)Nc2nnc(-c3ccccc3)s2)no1", "Potency": "inactive"},
      {"smiles": "Cn1c(NCc2ccco2)nc2c1c(=O)n(Cc1ccc(Cl)c(Cl)c1)c(=O)n2C", "Potency": "inconclusive: 0.708 µM [activator, partial curve]"},
      {"smiles": "CC1=C(c2ccc(C)cc2)S(=O)(=O)N(Cc2ccc(C(=O)NCc3ccccc3F)cc2)C1=O", "Potency": "inconclusive: 12.6 µM [inhibitor, single point]"},
      {"smiles": "CCOC(=O)c1cnc(-n2nc(C)cc2C)nc1Nc1ccc(N(C)C)cc1", "Potency": "inconclusive: 2.82 µM [activator, partial curve, poor fit]"},
      {"smiles": "CCCCCCc1cc2cc(-c3cn4c(n3)sc3cc(OC)ccc34)c(=O)oc2cc1O", "Potency": "inconclusive: 8.91 µM [activator, partial curve, poor fit]"},
      {"smiles": "COc1ccc(C2SCCN2C(=S)Nc2ccc(Cl)cc2)cc1", "note": "(stereo not drawn)", "Potency": "inconclusive: 20 µM [inhibitor, partial curve]"},
      {"smiles": "Cc1nc2nc(C)c(CCC(=O)NC3CCCCC3)c(C)n2n1", "Potency": "inconclusive: 10 µM [inhibitor, partial curve, poor fit]"},
      {"smiles": "Cc1ccc2[nH]c(=O)c(CN(C(=O)c3cccc([N+](=O)[O-])c3)C(C)(C)C)cc2c1", "Potency": "inactive"},
      {"smiles": "O=C(Nc1ccc(Cl)c(C(F)(F)F)c1)C(Cc1ccccc1)NS(=O)(=O)c1cccc2nsnc12", "note": "(stereo not drawn)", "Potency": "inconclusive: 7.94 µM [inhibitor, partial curve]"},
      {"smiles": "Cc1ccc(C(=O)Nc2ccc(S(=O)(=O)NCc3ccco3)cc2)cc1", "Potency": "inconclusive: 20 µM [inhibitor, single point]"},
      {"smiles": "CCCc1nc2ccccc2c(C(=O)OCC(=O)Nc2cccc(S(=O)(=O)N3CCOCC3)c2)c1CC", "Potency": "inconclusive: 4.47 µM [inhibitor, full curve, poor fit]"},
      {"smiles": "Cc1cc2nc(-c3ccc(SCC(=O)Nc4ccc(S(=O)(=O)NC5CC5)cc4)nc3)[nH]c2cc1C", "Potency": "inconclusive: 8.91 µM [inhibitor, full curve]"},
      {"smiles": "O=C(Nc1ccncc1NC(=O)c1cccc([N+](=O)[O-])c1)c1cccc([N+](=O)[O-])c1", "Potency": "inactive"},
      {"smiles": "O=S(=O)(NCCc1csc2nc(-c3ccc(Cl)cc3)nn12)c1ccc2c(c1)OCCO2", "Potency": "inconclusive: 39.8 µM [inhibitor, single point]"},
      {"smiles": "Nc1nnc(N2CCCCCC2)s1", "Potency": "inactive"},
      {"smiles": "Cc1ccc(S(=O)(=O)N/N=C\\c2cc3c(cc2Br)OCO3)cc1", "Potency": "inconclusive: 20 µM [inhibitor, partial curve]"},
      {"smiles": "COc1ccc(CSCCc2n[nH]c(=S)n2-c2ccccc2)cc1C", "Potency": "inactive"},
      {"smiles": "O=c1[nH]c2ccccc2c2oc(CCl)nc12", "Potency": "inconclusive: 31.6 µM [inhibitor, single point]"},
      {"smiles": "COc1ccc2c(c1)c1nnc(SC)nc1n2C", "Potency": "inconclusive: 44.7 µM [inhibitor, single point]"},
      {"smiles": "COc1ccc(-c2cc(C)no2)cc1S(=O)(=O)N1CCOc2ccc(Cl)cc21", "Potency": "inconclusive: 7.94 µM [inhibitor, partial curve]"},
      {"smiles": "Cc1ccc2[nH]c(CSc3nnc(NC(=O)COc4ccc(F)cc4)s3)cc(=O)c2c1", "Potency": "inconclusive: 14.1 µM [inhibitor, partial curve]"},
      {"smiles": "CN(C)S(=O)(=O)c1cccc(NC(=S)Nc2cc(Cl)cc(Cl)c2)c1", "Potency": "active: 25.1 µM"},
      {"smiles": "COc1cc(OC)c(-c2nc3ccccc3s2)cc1OC", "Potency": "inconclusive: 20 µM [activator, single point]"},
      {"smiles": "COc1ccc(CNC(=O)c2cc(-c3ccc(Cl)cc3)n[nH]2)cc1", "Potency": "inconclusive: 35.5 µM [inhibitor, single point]"},
      {"smiles": "COc1ccc(NC(=O)COC(=O)CCCOc2ccc(Cl)cc2Cl)cc1Cl", "Potency": "inconclusive: 2.82 µM [inhibitor, full curve]"},
      {"smiles": "CCCn1c(SCC(=O)Nc2cccc(S(=O)(=O)N(C)C)c2)nc2ccccc2c1=O", "Potency": "inconclusive: 4.47 µM [inhibitor, single point]"},
      {"smiles": "CN(C)c1ccc(NC(=O)CN2CCN(S(=O)(=O)c3cc(Cl)ccc3Cl)CC2)cc1", "Potency": "inconclusive: 12.6 µM [activator, partial curve, poor fit]"},
      {"smiles": "COc1ccc(Oc2nc(-c3ccccc3)ncc2S(=O)(=O)c2ccccc2)cc1", "Potency": "inconclusive: 35.5 µM [inhibitor, single point]"},
      {"smiles": "COC(=O)c1ccc(NC(=O)Nc2ccc(F)cc2F)cc1", "Potency": "inconclusive: 39.8 µM [inhibitor, single point]"},
      {"smiles": "COCCN1C(=O)/C(=C/c2ccc(N3CCCC3)cc2C)SC1=S", "Potency": "inconclusive: 39.8 µM [inhibitor, single point]"},
      {"smiles": "O=C(O)c1cccc(N=NN2CCOCC2)c1", "Potency": "inconclusive: 12.6 µM [inhibitor, partial curve, poor fit]"},
      {"smiles": "CCN(CC)CCNC(=O)c1ccc(-n2c(-c3ccccc3)cc3c2CCCC3)cc1", "Potency": "inconclusive: 22.4 µM [inhibitor, partial curve]"},
      {"smiles": "COc1cc(N/N=C(\\C)c2ccc(O)c(C)c2)nc(-c2ccccc2)n1", "Potency": "inconclusive: 39.8 µM [inhibitor, single point]"},
      {"smiles": "CCCCCCCCCCCCCCC[C@@H](O)[C@H](CO)NC(=O)CCCCCCC", "Potency": "inactive"},
      {"smiles": "COc1ccccc1NC(=O)C1=C(C)Nc2nc(-c3cccs3)nn2C1c1cccnc1", "note": "(stereo not drawn)", "Potency": "inconclusive: 44.7 µM [inhibitor, single point]"},
      {"smiles": "C=C(C)c1cccc(C(C)(C)NC(=O)NC(c2ccccc2)c2ccc(OC)cc2)c1", "note": "(stereo not drawn)", "Potency": "inactive"},
      {"smiles": "COc1ccc2oc(-c3ccc(C)c(NC(=O)c4ccc(N5CCOCC5)c([N+](=O)[O-])c4)c3)nc2c1", "Potency": "inconclusive: 20 µM [inhibitor, partial curve, poor fit]"},
      {"smiles": "Cc1cc(C)cc(-n2ccn(Cc3ccc(F)cc3)c(=O)c2=O)c1", "Potency": "inconclusive: 2.82 µM [inhibitor, full curve, poor fit]"},
      {"smiles": "CC(C)C(C(=O)O)N1C(=O)/C(=C/C=C/c2ccco2)SC1=S", "note": "(stereo not drawn)", "Potency": "active: 25.1 µM"},
      {"smiles": "Cc1ccc(OC(=O)c2sc3ncn(C)c(=O)c3c2C)cc1", "Potency": "inconclusive: 14.1 µM [inhibitor, partial curve]"},
      {"smiles": "CC(=O)Nc1ccc(S(=O)(=O)N(C2=NCC(C)S2)c2ccccc2)cc1", "note": "(stereo not drawn)", "Potency": "inactive"},
      {"smiles": "Cc1ccc(-c2cn(-c3ccc(Cl)cc3)c(S(=O)(=O)CC(=O)Nc3ccccc3)n2)cc1", "Potency": "inconclusive: 7.08 µM [inhibitor, full curve, poor fit]"},
      {"smiles": "COc1ccc(NC(=O)CC2C(=O)N(c3cccc(OC)c3)C(=O)N2Cc2ccc3c(c2)OCO3)cc1", "note": "(stereo not drawn)", "Potency": "inactive"},
      {"smiles": "CC(/C=N/Nc1nc(C)cc(=O)[nH]1)=C\\c1ccccc1", "Potency": "inactive"},
      {"smiles": "O=C(Oc1cc(-c2ccccc2)no1)c1ccc(Cl)cc1", "Potency": "inactive"},
      {"smiles": "CCOc1ccc(NC(=O)CC2C(=O)N(c3ccc(OC)cc3)C(=S)N2Cc2ccccn2)cc1", "note": "(stereo not drawn)", "Potency": "inactive"},
      {"smiles": "COc1ccc(CCNc2oc(-c3ccccc3OC)nc2C#N)cc1", "Potency": "inconclusive: 25.1 µM [activator, single point]"},
      {"smiles": "CCCCOC(=O)c1ccc(Nc2nnc(-n3nc(C)cc3C)c3ccccc23)cc1", "Potency": "inconclusive: 3.55 µM [inhibitor, full curve]"},
      {"smiles": "COc1ccc(-c2noc(CSc3nc(N)cc(=O)[nH]3)n2)cc1OC", "Potency": "inactive"},
      {"smiles": "Cc1ccc(C)c2[nH]c(=O)c(C(c3nnnn3Cc3ccccc3)N3CCc4ccccc4C3)cc12", "note": "(stereo not drawn)", "Potency": "inconclusive: 28.2 µM [inhibitor, partial curve]"},
      {"smiles": "COc1ccc(C2(C(=O)Nc3ccc(C)c(C)c3)CCOCC2)cc1", "Potency": "inactive"},
      {"smiles": "Cc1ccc(/C=C/c2onc(C)c2S(=O)(=O)N2CCC(C(=O)Nc3cc(F)ccc3F)CC2)cc1", "Potency": "inconclusive: 31.6 µM [inhibitor, partial curve]"},
      {"smiles": "CC(C)Cn1c(N)c(C(=O)COC(=O)c2cc(-c3ccccc3)nc3ccccc23)c(=O)n(C)c1=O", "Potency": "inconclusive: 11.2 µM [inhibitor, partial curve, poor fit] and inconclusive: 8.91 µM [inhibitor, partial curve]"},
      {"smiles": "O=C1C=C(c2ccccc2)CC(c2cccs2)C1n1cnc([N+](=O)[O-])c1", "note": "(stereo not drawn)", "Potency": "inactive"},
      {"smiles": "C/C(CC(=O)Nc1cccc(Cl)c1)=N\\NC(=O)Cc1ccc(Cl)cc1", "Potency": "inconclusive: 12.6 µM [inhibitor, partial curve, poor fit]"},
      {"smiles": "O=S(=O)(Nc1ncnc2sc3c(c12)CCC3)c1ccc2ccccc2c1", "Potency": "inconclusive: 3.16 µM [activator, single point]"},
      {"smiles": "CCOC(=O)c1c(NC(C)=O)c2c3c(sc2n1Cc1nc(-c2cccc(C)c2)oc1C)CCCC3", "Potency": "inactive"},
      {"smiles": "O=C1CC(N(CCc2ccccc2)C(=S)Nc2cc(Cl)ccc2Cl)C(=O)N1c1c(Cl)cccc1Cl", "note": "(stereo not drawn)", "Potency": "inconclusive: 20 µM [inhibitor, single point]"},
      {"smiles": "CCc1sc(/C=C(/C#N)C(N)=S)cc1[N+](=O)[O-]", "Potency": "inconclusive: 11.2 µM [inhibitor, partial curve]"},
      {"smiles": "Nc1cc(-c2ccccc2)nn1S(=O)(=O)c1ccc(Br)cc1", "Potency": "inconclusive: 8.91 µM [activator, single point]"},
      {"smiles": "CO[C@@H]1COC(=O)C/C=C\\[C@H](C)[C@H](OC)COC(=O)[C@H]2CCCN2C(=O)C/C=C\\[C@H]1C", "activity, negative = inhibition": "inactive: 2.94% [at 11.6 µM]"}
    ]}
  ]
}
